This is an account of results in PubChem BioAssay AID488969 (Vanderbilt High Throughput Screening Facility, 2010).

In all, about 110,000 compounds were measured (“z-score”: median about -0.1, highest 2% from about 2 on). The list shows a part of the results. Calls of active or inactive are those of the source.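 Rule for the calls: active = z-score in the third read window above 3 or below -3; inactive = the rest.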

The target in this assay is Metabotropic glutamate receptor 8 (Rattus norvegicus) (UniProt P70579). Put plainly: rat mGluR8 modulators via GIRK flux, primary screen, cell-based, thallium flux, HTS (AID 488969). As to conditions: HEK293 rat mGluR8, GIRK (G protein-gated inwardly rectifying potassium channel) thallium flux, FluoZin2; at 10 µM; stronger effect = higher value; submaximal glutamate (EC20) added with thallium.
Sequence of UniProt P70579 (P70579 whole entry, looked up): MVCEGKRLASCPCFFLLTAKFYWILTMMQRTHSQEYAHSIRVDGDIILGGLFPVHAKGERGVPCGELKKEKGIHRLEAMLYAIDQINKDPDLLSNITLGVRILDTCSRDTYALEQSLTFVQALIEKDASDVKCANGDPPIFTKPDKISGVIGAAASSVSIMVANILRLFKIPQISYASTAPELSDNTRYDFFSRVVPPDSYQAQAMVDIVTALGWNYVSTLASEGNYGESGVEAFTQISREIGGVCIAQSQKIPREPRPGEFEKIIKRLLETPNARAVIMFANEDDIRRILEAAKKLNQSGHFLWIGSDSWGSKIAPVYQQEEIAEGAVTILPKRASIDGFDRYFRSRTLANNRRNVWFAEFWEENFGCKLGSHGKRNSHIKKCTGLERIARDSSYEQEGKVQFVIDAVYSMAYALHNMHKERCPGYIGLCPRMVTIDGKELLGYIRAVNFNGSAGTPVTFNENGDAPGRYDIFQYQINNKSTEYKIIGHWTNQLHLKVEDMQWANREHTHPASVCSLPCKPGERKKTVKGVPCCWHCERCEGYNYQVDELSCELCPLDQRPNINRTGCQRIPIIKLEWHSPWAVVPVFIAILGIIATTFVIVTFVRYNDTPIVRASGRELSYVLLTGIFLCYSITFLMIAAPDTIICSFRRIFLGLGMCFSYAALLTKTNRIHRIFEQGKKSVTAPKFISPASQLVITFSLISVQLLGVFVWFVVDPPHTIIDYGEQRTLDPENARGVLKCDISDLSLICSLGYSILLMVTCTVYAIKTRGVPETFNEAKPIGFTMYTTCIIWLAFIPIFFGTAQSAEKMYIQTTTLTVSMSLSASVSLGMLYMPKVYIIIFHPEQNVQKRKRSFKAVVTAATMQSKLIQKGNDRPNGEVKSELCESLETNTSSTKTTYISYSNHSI
For `CN(c1ccccc1C(=O)Nc1cccnc1)S(C)(=O)=O`, the z-score is 0.0619.

Molecule `CCNc1nc(SCc2ccccc2)nc(N2CCOCC2)n1` returned a z-score of -0.898.

In turn, `Nc1c(S(=O)(=O)c2cccs2)c2nc3ccccc3nc2n1Cc1ccccc1` registered a z-score of -0.107.

For the molecule `COC(=O)c1cc(CN2CCN(c3ccccc3C)CC2)ccc1O`, the z-score amounted to 0.326.

`Cn1c(=O)[nH]c2cc(Cl)cnc21` gave a z-score of 0.0453.

`CCOC(=O)C1CCN(C(=O)Cc2c(C(=O)O)[nH]c3ccccc23)CC1` gave a z-score of 0.174.

Molecule `CCCCNC(=O)n1c(SC)nc2ccccc21` showed a z-score of -0.0061.

`CCOc1cc(S(=O)(=O)Nc2ccc(CC)cc2)ccc1Cl` registered a z-score of 0.0907.

`Cc1ccc2c(c1)N1C(=O)c3ccccc3C1C1=C(CC(C)(C)CC1=O)N2` (stereo unspecified): the z-score was -0.0445.

`C=CCn1c(-c2cccn(Cc3ccc(Cl)cc3)c2=O)n[nH]c1=S`: the z-score was found to be 0.776.

`CCCn1c(NCc2c[nH]c3ccccc23)nc2ccccc21` returned a z-score of 0.265.

Take `O=C(O)C1C2C=CC(C2)C1C(=O)NCCCn1ccnc1` (stereo unspecified): the z-score was -0.053.

In the case of `CCCc1cc(=O)n2[nH]c(-c3ccc(Br)cc3)cc2n1`, the z-score is active: 3.04.

Molecule `[O-][n+]1onc2c1CCc1nnc(-c3ccccc3)cc1-2` showed a z-score of -0.0502.

Molecule `O=C(c1cc(-c2ccccc2)nc2ccccc12)N1CCc2ccccc2C1` registered a z-score of -0.569.

Regarding `Cn1c(SCc2cccnc2)nnc1-c1c[nH]c2ccccc12`, the z-score is -0.112.

As for `O=C(CSc1ncnc2c(-c3ccc(Cl)cc3)nsc12)c1ccccc1`, the z-score was determined as 0.178.

With `Cc1ccc(NC(=O)CSc2nc(O)c(Cc3ccccc3)c(=O)n2-c2ccccc2)cc1`, the z-score was -0.47.

The molecule `CCc1ccc2c(Cl)c(C(=O)N/N=C/c3c[nH]c4ccccc34)sc2c1` came in with a z-score of -0.00757.

For the molecule `O=c1nc2ccccc2c(NS(=O)(=O)c2ccc(Cl)cc2)n1-c1ccccc1`, the z-score was -0.325.

The molecule `Cc1ccccc1S(=O)(=O)Cc1ccc(C(=O)NCc2cccs2)o1` displayed a z-score of 0.133.

For the molecule `CCCCCN(C(=O)CN(C)Cc1ccc(OC)cc1OC)c1c(N)n(CCCC)c(=O)[nH]c1=O`, the z-score came out at 0.0701.

On to `Cc1nc(NC(=S)NC(=O)c2cccs2)sc1C(=O)N(C)C`, for which the z-score is -0.329.

In the case of `CN1C(=O)C2(c3ccccc31)C1CCCC=C1C(C#N)=C(N)C2(C#N)C#N` (stereo unspecified), the z-score is -0.329.

The molecule `CCc1cccc2c(C(=O)COC(=O)c3c(C)noc3C)c[nH]c12` registered a z-score of 0.137.

The molecule `Cc1ccc(C(=O)SC2=NCCS2)cc1` returned a z-score of -0.731.

The molecule `Cc1ccccc1NC(=O)C1CCCN1/C=C/C(=O)C(F)(F)F` (stereo unspecified) displayed a z-score of -0.244.

In turn, `CC(C)(Oc1ccc(Cl)cc1)C(=O)Nc1ccncc1` gave a z-score of -0.401.

`Cc1cc(Br)c(OCc2ccc(C(=O)N/N=C3\CC(=O)CC(C)(C)C3)cc2)c(Br)c1` gave a z-score of -0.0552.

In the case of `Cc1ccc(-n2ncc3c(=O)[nH]c(SCC(=O)N4CCCCC4)nc32)cc1`, the z-score was -0.107.

Consider `Cc1ccc(CN2CCN(CC(=O)NCCCN3CCN(c4ccc(F)cc4)CC3)C2=O)cc1`, for which the z-score came to 0.0736.

In turn, `CC(=O)NC(C)C12CC3CC(CC(CC(=O)O)(C3)C1)C2` (stereo unspecified) had a z-score of -1.

As to `Cc1cc(C)nc(NC(=O)COc2cc(Cl)cc(Cl)c2)n1`, the z-score was -0.251.

`Cc1cc(C)c(NC(=S)N2CCCC2C(=O)O)c(C)c1` (stereo unspecified): the z-score is -0.128.

For the molecule `O=C(CSc1ccc(-c2ccc(Cl)cc2)nn1)Nc1ccc2c(c1)OCCO2`, the z-score was -0.107.

Molecule `COc1ccc(N(C(=O)CCl)C(C(=O)NCCc2ccccc2)c2cccs2)cc1` (stereo unspecified) yielded a z-score of -0.183.

In turn, `Cc1c(NC(=O)c2cc(=O)[nH]c3ccccc23)c(=O)n(-c2ccccc2)n1C` registered a z-score of 0.806.

In turn, `Cc1ccc2nc(C)cc(NCCO)c2c1` gave a z-score of -1.17.

`N=C1C(c2nc3ccccc3[nH]2)=C(O)CN1c1ccc(CC(=O)O)cc1` displayed a z-score of 0.524.

For the molecule `COCCCN1C(=O)C(=O)/C(=C(/O)c2ccc3c(c2)CC(C)O3)C1c1cccnc1` (stereo unspecified), the z-score was -0.0792.

`O=C(COc1ccc([N+](=O)[O-])cc1)NN=C1CCCC1` yielded a z-score of 0.0848.

`N=c1c2c3c(sc2ncn1CCN1CCOCC1)CCCC3`: the z-score is -1.13.

The molecule `O=C(O)C1CCCN1C(=O)Oc1ccccc1` (stereo unspecified) gave a z-score of -0.186.

On to `Cc1ccc(S(=O)(=O)CCC(=O)OCC(=O)c2ccc(C)c(C)c2)cc1`, for which the z-score was -0.412.

The molecule `CS(=O)(=O)N(CCc1ccccc1)CC(=O)N1CCCCC1` displayed a z-score of 0.555.

On to `Cc1ccc(Nc2nc(CSc3nnc(-c4ccccc4)n3C)cs2)cc1`, for which the z-score was -0.569.

`COC(=O)c1[nH]c2ccc(Cl)cc2c1NC(=O)C1CC1` showed a z-score of 0.098.

The molecule `COc1cccc(OC)c1C(=O)Nc1ccc(CN2CCCCC2)cc1` showed a z-score of -0.866.

In turn, `NC(=O)C1CCN(C(=O)COc2ccc3ccccc3c2)CC1` displayed a z-score of 0.115.

`[N-]=[N+]=CC(=O)CCCN1C(=O)c2ccccc2C1=O` registered a z-score of -0.111.

Consider `CC(C)(C)C1CCC(OCC(O)CN2CCN(Cc3ccccc3)CC2)CC1` (stereo unspecified), for which the z-score is -0.106.

In turn, `CCc1ccc2c(c1)c(N=NC1=NC(=O)CS1)c(O)n2C` displayed a z-score of 2.09.

`CCCOc1ccc(OC(=O)c2ccc(Br)o2)cc1` displayed a z-score of -0.103.

Molecule `CC(C)(C)c1ccc(C(=O)NNC(=O)c2ccccc2Br)cc1` came in with a z-score of -0.181.

In the case of `CCOC(=O)c1cnc2ccc(Cl)cc2c1N1CCN(C)CC1`, the z-score was -0.0256.

Molecule `CCOC(=O)C1=C(c2ccccc2)Nc2nc(C)nn2C1c1cccc(OC)c1OC` (stereo unspecified) registered a z-score of 0.00423.

With `CCOC(=O)CSc1nnc(CNC(=O)Cc2ccccc2)n1C`, the z-score was -0.274.

`Nc1nc2n(n1)C(c1cccc(Cl)c1)CC(c1ccc(F)cc1)N2` (stereo unspecified) yielded a z-score of 0.421.

With `Cc1ncc([N+](=O)[O-])n1CCOC(=O)c1cc(Cl)cc(Cl)c1N`, the z-score was -0.21.

On to `O=C(NCCc1ccccc1)C1CCN(S(=O)(=O)c2cccnc2)CC1`, for which the z-score amounted to 1.19.

`CCC1(C)Cc2nc3[nH]c(=S)n(-c4ccc(C)cc4)c(=O)c3cc2CO1` (stereo unspecified): the z-score is -0.162.

On to `CC(C)c1ccc(NC(=O)C2CC(=O)N=C(N)S2)cc1` (stereo unspecified), for which the z-score is 0.25.

The molecule `Cc1ccc(-c2csc(N(C)C(=O)c3c(C)nn(-c4ccccc4)c3Cl)n2)cc1` showed a z-score of -0.178.

`O=C(c1cn(-c2ccccc2)nc1-c1cccs1)N1CCN(c2ccccn2)CC1` displayed a z-score of -0.264.

`O=C(Nc1nc(-c2ccc(S(=O)(=O)N3CCCCCC3)cc2)cs1)c1ccccc1`: the z-score was -0.101.

For the molecule `COC(=O)c1sccc1NC(=O)c1ccc(Cl)s1`, the z-score is -0.15.

`O=C(NC(=S)Nc1cccc(Cl)c1N1CCCCC1)c1ccco1`: the z-score is active: 5.38.

Molecule `Cc1nc2ccccc2n1CCc1nc2c3ccccc3nc(=S)n2[nH]1` displayed a z-score of -0.257.

In turn, `CCCCn1c(SCC(=O)N2CCOCC2)nnc1-c1ccoc1C` registered a z-score of 1.9.

Regarding `CCCCN(C(=O)c1cc2ccccc2o1)c1c(N)n(CCC)c(=O)[nH]c1=O`, the z-score was found to be 0.0353.

The molecule `Cc1ccc(N2CC(C(=O)N3CCCc4ccccc43)CC2=O)cc1` (stereo unspecified) came in with a z-score of -0.407.
